Reference: PMC4336329 (PLoS ONE, 2015)
Screen size: about 310,000 compounds; about 14,000 (4.5%) showed an effect of 50% or more. Effects have a minus sign here. The list shows a part of the results.

target: human ether-à-go-go-related gene (hERG) potassium channel (human, UniProt Q12809); assay: primary screen, population patch clamp on CHO cells stably expressing hERG
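Further: peak tail current of the secondary pulse compared with the same well before compound.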

Chain of human ether-à-go-go-related gene (hERG) potassium channel (Q12809 whole entry, looked up): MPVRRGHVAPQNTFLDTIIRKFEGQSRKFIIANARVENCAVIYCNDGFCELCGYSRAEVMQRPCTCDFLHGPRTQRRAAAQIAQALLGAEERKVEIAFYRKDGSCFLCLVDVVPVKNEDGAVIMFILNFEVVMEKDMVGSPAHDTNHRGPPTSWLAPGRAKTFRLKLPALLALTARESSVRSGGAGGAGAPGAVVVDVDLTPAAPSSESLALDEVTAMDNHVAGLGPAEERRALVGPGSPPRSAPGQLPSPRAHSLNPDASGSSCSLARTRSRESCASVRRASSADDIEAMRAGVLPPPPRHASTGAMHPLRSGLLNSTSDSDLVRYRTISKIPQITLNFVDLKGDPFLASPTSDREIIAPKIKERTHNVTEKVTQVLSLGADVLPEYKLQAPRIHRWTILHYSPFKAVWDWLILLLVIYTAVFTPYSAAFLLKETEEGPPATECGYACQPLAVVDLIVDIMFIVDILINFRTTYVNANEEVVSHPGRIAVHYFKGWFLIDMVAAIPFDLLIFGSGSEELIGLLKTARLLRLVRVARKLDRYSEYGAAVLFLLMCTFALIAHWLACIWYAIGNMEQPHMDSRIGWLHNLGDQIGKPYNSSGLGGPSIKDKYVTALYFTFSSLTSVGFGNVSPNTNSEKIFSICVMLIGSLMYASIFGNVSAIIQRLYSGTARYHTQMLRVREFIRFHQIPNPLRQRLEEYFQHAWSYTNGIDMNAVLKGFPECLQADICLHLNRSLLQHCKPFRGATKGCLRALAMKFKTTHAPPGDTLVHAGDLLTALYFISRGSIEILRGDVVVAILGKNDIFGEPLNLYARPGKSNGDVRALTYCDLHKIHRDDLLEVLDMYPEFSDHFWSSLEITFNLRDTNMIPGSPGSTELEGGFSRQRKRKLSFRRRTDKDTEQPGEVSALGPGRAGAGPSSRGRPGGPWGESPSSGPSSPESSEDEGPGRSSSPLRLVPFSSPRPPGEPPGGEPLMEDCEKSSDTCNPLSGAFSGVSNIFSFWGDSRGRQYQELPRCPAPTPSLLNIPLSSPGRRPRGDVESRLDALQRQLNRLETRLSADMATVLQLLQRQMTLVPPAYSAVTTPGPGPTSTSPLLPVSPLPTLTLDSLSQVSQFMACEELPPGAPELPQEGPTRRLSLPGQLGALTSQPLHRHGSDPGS

Going from `CC(C(=O)N1CCCCC1)N1C(=O)c2ccccc2C1=O` (stereo not shown) to `CC(C)Cc1nnc(NC(=O)CCC(=O)N2CCCCC2)s1`, the “hERG current change (%, negative = inhibition) at 10uM” value rises from 4.41% to 8.77%.

First: CCOc1ccc(NC(=O)COc2ccc(C(=O)NC(C)c3ccc(S(N)(=O)=O)cc3)cc2OC)cc1 (stereo not shown)
Second: O=C(Cc1ccccc1)Nc1ccc(NC(=O)c2ccc(Br)cc2)cc1
The “hERG current change (%, negative = inhibition) at 10uM” value of the first is lower: -0.0396% for the first, 15.4% for the second.

First: CCOC(=O)C1=C(c2ccccc2)OC(N)=C(C#N)C1c1ccco1 (stereo not shown)
Second: CCOC(=O)c1c(C)n(C(=O)c2ccco2)c(=O)n1C(=O)c1ccco1
The “hERG current change (%, negative = inhibition) at 10uM” value of the first is higher: 10.9% for the first, -10.9% for the second.

First: O=[N+]([O-])c1c(NCCCO)cc(N2CCCCCC2)c2nonc12
Second: Cc1ccc(C(=O)Nc2ccc3c(c2)OCO3)cc1S(=O)(=O)N1CCCC1
The “hERG current change (%, negative = inhibition) at 10uM” value of the first is lower: -5.66% for the first, -2.34% for the second.

Compared with `CN(CC(=O)Nc1ccccc1Br)C(=O)c1ccccc1-c1nc2ccccc2s1`, `Cc1cccc(NC(=O)CSc2nc3[nH]ncc3c(=O)n2-c2ccccc2)c1` is lower in “hERG current change (%, negative = inhibition) at 10uM” value: -26.3% for the first, -41.2% for the second.

First: Cc1cccc(C(=O)N2CC(=O)Nc3ccc(F)cc3C2c2ccc(F)cc2)c1 (stereo not shown)
Second: Cc1ccc(CNC(=O)c2cccc3c2C(=O)c2ccc(N4CCC(C)CC4)cc2S3(=O)=O)cc1
The “hERG current change (%, negative = inhibition) at 10uM” value of the first is lower: 2.54% for the first, 9.65% for the second.

Compared with `COc1ccc(C(=O)CSc2nnc(-c3cnccn3)n2Cc2ccco2)cc1`, `COc1ccc(C2CC(c3ccc(C)o3)=NN2C(C)=O)cc1` (stereo not shown) is higher in “hERG current change (%, negative = inhibition) at 10uM” value: -10.2% for the first, 7.14% for the second.

Compared with `CC(=O)Nc1nc(N)n(-c2ccccc2)n1`, `CN(C)c1nc(N)c([N+](=O)[O-])c(NCc2ccccc2)n1` is higher in “hERG current change (%, negative = inhibition) at 10uM” value: 3.2% for the first, 4.16% for the second.

Compared with `O=C(c1ccccc1Br)N1CCN(c2ncccn2)CC1`, `CCn1cc(C(=O)N2CCN(c3cccc(Cl)c3)CC2)c2cc(OC)c(OC)cc2c1=O` is lower in “hERG current change (%, negative = inhibition) at 10uM” value: 20.3% for the first, -64.8% for the second.

Going from `CC1CCN(c2ccccc2NC(=O)c2ccc(F)cc2)CC1` to `O=C(Nc1ccccc1N1CCOCC1)c1cccc(NS(=O)(=O)c2ccc(F)c(F)c2)c1`, the “hERG current change (%, negative = inhibition) at 10uM” value falls from 6.41% to -6.07%.

Going from `CC(C)(C)Nc1scc(-c2ccccc2)[n+]1-c1ccccc1.[Br-]` to `Clc1ccc(-c2cc(COc3ccccc3)on2)cc1`, the “hERG current change (%, negative = inhibition) at 10uM” value rises from 4.85% to 12.9%.

First: CCN(CC)CCCSc1nc2ccccc2s1.O=C(O)C(=O)O
Second: CCCCNC(=O)CC(C(=O)N1CCc2ccccc21)n1ccnc1 (stereo not shown)
The “hERG current change (%, negative = inhibition) at 10uM” value of the first is lower: -31.9% for the first, -20.8% for the second.

Going from `CC1Cc2ccccc2N1c1ncnc(N)c1[N+](=O)[O-]` (stereo not shown) to `COc1ccccc1NC(=O)c1c([N+](=O)[O-])c(C(C)(C)C)nn1C`, the “hERG current change (%, negative = inhibition) at 10uM” value rises from -24.2% to -6.71%.

Going from `Cc1nc2sccc2c(=O)n1-c1cccc(Cl)c1` to `CCC(Cc1ccccc1)NS(=O)(=O)c1c(C)nc2scc(C)n2c1=O` (stereo not shown), the “hERG current change (%, negative = inhibition) at 10uM” value rises from -6.82% to 11.8%.

First: COc1cc2[nH]c(=S)n(CC3CCCO3)c(=O)c2cc1OC (stereo not shown)
Second: COc1ccc2c(c1)[nH]c1c(=O)n(CCN3CCOCC3)cnc12
The “hERG current change (%, negative = inhibition) at 10uM” value of the first is lower: -0.417% for the first, 8.72% for the second.

Going from `Cc1ccc(C2(C)NC(=O)N(CC(=O)NNC(=O)c3cc(C)oc3C)C2=O)cc1` (stereo not shown) to `Cc1ccc(S(=O)(=O)N(C)c2cc(S(=O)(=O)N3CCC(C)CC3)c(C)cc2C)cc1`, the “hERG current change (%, negative = inhibition) at 10uM” value falls from 12.9% to -9.38%.

First: O=C1Nc2ccccc2C12OCC(COc1ccc(Cl)cc1)O2 (stereo not shown)
Second: O=C(NC(=S)Nc1ccc2oc(=O)ccc2c1)c1cc2ccccc2o1
The “hERG current change (%, negative = inhibition) at 10uM” value of the first is higher: 0.979% for the first, 0.509% for the second.

Compared with `CCN1C[C@]2(COC)CC[C@H](O)[C@@]34C5C[C@@H]6[C@@H](OC)C[C@@](O)(C5[C@H]6O)[C@](O)([C@@H](OC)C23)[C@@H]14` (stereo partly shown), `CCC1CCC(C(=O)NC(C(=O)NCCN2CCOCC2)C(C)C)CC1` (stereo not shown) is higher in “hERG current change (%, negative = inhibition) at 10uM” value: -1.74% for the first, 9.32% for the second.

Going from `O=C(O)c1ccccc1C(=O)N1CCc2c([nH]c3ccccc23)C1C(F)(F)F` (stereo not shown) to `Cc1cc(NC(=O)CCC(=O)N(c2ccccc2)C(C(=O)NC2CCCC2)c2ccccc2)no1` (stereo not shown), the “hERG current change (%, negative = inhibition) at 10uM” value falls from 16.7% to -1.39%.

First: Cc1cc(Nc2ccc([N+](=O)[O-])cc2)nc2ccccc12
Second: O=C(NCc1ccccc1Cl)c1ccc2nnsc2c1
The “hERG current change (%, negative = inhibition) at 10uM” value of the first is higher: 14.9% for the first, 4.01% for the second.

Going from `CC(C)(C)c1ccc(NC(=O)NCc2ccco2)cc1` to `O=C(Nc1ccc(S(=O)(=O)N2CCCC2)cc1)Nc1ccc(F)cc1F`, the “hERG current change (%, negative = inhibition) at 10uM” value rises from -2.22% to 12%.

First: CCc1nn(CC(=O)NCCc2ccc(OC)cc2OC)c(=O)c2cc3occc3n12
Second: COc1ccc(N2CCN(Cc3cc(=O)oc4cc(C)c(Cl)c(C)c34)CC2)cc1
The “hERG current change (%, negative = inhibition) at 10uM” value of the first is lower: 6.13% for the first, 11% for the second.

Going from `O=C1CCCC/C1=C/Nc1ccc2c(c1)OCO2` to `Oc1ccc(N=Nc2ccc3c(c2)OCCO3)c2ncccc12`, the “hERG current change (%, negative = inhibition) at 10uM” value falls from 8.92% to 3.61%.

Going from `CN1CCN(C(=S)Nc2cc([N+](=O)[O-])ccc2Cl)CC1` to `Cc1ccc(C)c(NC(=S)NCCN2CCOCC2)c1`, the “hERG current change (%, negative = inhibition) at 10uM” value rises from -0.759% to 2.96%.

Compared with `CN(C)S(=O)(=O)c1ccc(N2CCCC2=O)c([N+](=O)[O-])c1`, `C/C(=N\NC(=O)c1cccc(S(=O)(=O)N2CCCC2)c1)c1ccncc1` is higher in “hERG current change (%, negative = inhibition) at 10uM” value: -5.38% for the first, -1.9% for the second.

First: CCN1C(=O)[C@H]2[C@@H](c3ccc(Cl)cc3)N3C(=O)CN(CC4CC4)C(=O)[C@@]3(C)[C@H]2C1=O
Second: CCn1c(CNC(=O)c2cccc(C)c2)nnc1SCC(=O)NC1CCCCC1C (stereo not shown)
The “hERG current change (%, negative = inhibition) at 10uM” value of the first is lower: -4.85% for the first, 19.1% for the second.

Compared with `COc1ccc(C(=O)NCc2ccncc2)cc1OC`, `CCC(=O)Nc1cccc(C(=O)Nc2nccs2)c1` is lower in “hERG current change (%, negative = inhibition) at 10uM” value: 18.9% for the first, 5.14% for the second.

With `COCCNC(=S)N/N=C(\C)c1ccc(O)cc1` the “hERG current change (%, negative = inhibition) at 10uM” value was -22.5%.
